Data reported in the supplement of paper PMC7125110.
± gives the standard error. This sample is rich in variants without activity.

B1: glmS ribozyme (parent)
chain: AUAAAAGCGCCAGAACUACAGAAAUGUAGUUGACGAGGAGGAGGUUUAUCGAAUUUUCGGCGGAUGCCUCCAAA

Tests used:
Conditions in all cases: with glucosamine-6-phosphate
glucosamine-6-phosphate [1] = variants of: B1; assay: self-cleavage kobs at 40 uM GlcN6P; higher = faster cleavage; RNA array
How it was run: (§1)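 Weighted Michaelis–Menten fits across concentrations supplied kcat and KM, based on kobs from one- or two-exponential decay fits to normalised per-tile medians. The data came from barcoded ribozyme variants transcribed in situ by E. coli RNA polymerase on sequenced MiSeq chips and tracked at 37 °C by a hybridised Cy3 probe. Glucosamine-6-phosphate (40 μM to 10 mM) in HEPES/KCl/Mg(OAc)2 buffer was flowed in.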

glucosamine-6-phosphate [2] = variants of: B1; assay: self-cleavage kobs at 640 uM GlcN6P; higher = faster cleavage; RNA array
How it was run: as §1

glucosamine-6-phosphate [3] = variants of: B1; assay: self-cleavage kobs at 160 uM GlcN6P; higher = faster cleavage; RNA array
How it was run: as §1

glucosamine-6-phosphate [4] = variants of: B1; assay: self-cleavage kobs at 10000 uM GlcN6P; higher = faster cleavage; RNA array
How it was run: as §1

glucosamine-6-phosphate [5] = variants of: B1; assay: self-cleavage kobs at 2500 uM GlcN6P; higher = faster cleavage; RNA array
How it was run: as §1

Row | Variant | self-cleavage kobs at 40 uM GlcN6P (glucosamine-6-phosphate [1]) [s⁻¹] | self-cleavage kobs at 640 uM GlcN6P (glucosamine-6-phosphate [2]) [s⁻¹] | self-cleavage kobs at 160 uM GlcN6P (glucosamine-6-phosphate [3]) [s⁻¹] | self-cleavage kobs at 10000 uM GlcN6P (glucosamine-6-phosphate [4]) [s⁻¹] | self-cleavage kobs at 2500 uM GlcN6P (glucosamine-6-phosphate [5]) [s⁻¹]
1 | U56C G60A | < 1e-05 | < 1e-05 | < 1e-05 | – | –
2 | G51U G63U | < 1e-05 | < 1e-05 | < 1e-05 | < 1e-05 | –
3 | A42C G66U | < 1e-05 | – | – | – | –
4 | G7U U56A G59U | – | < 1e-05 | – | – | –
5 | A6G A14U A53U U56C | – | < 1e-05 | – | – | –
6 | G41C G62A | < 1e-05 | < 1e-05 | < 1e-05 | < 1e-05 | < 1e-05
7 | G38C U54C | < 1e-05 | < 1e-05 | – | – | –
8 | A6G G29A U30G G40A U54C | – | < 1e-05 | – | – | –
9 | U45C A64C | < 1e-05 | < 1e-05 | < 1e-05 | – | –
10 | A52C C71A | < 1e-05 | – | – | – | –
11 | G7C U54G | – | < 1e-05 | < 1e-05 | – | –
12 | G7A A64C | – | < 1e-05 | < 1e-05 | < 1e-05 | –
13 | A48G G62U | < 1e-05 | – | – | < 1e-05 | –
14 | G43U G66U | < 1e-05 | – | < 1e-05 | < 1e-05 | –
15 | U45C A52C U65G | < 1e-05 | – | – | < 1e-05 | –
16 | U49C C67U | < 1e-05 | < 1e-05 | – | < 1e-05 | –
17 | G40C G59C | < 1e-05 | – | – | < 1e-05 | < 1e-05
18 | G44A U46C | < 1e-05 | < 1e-05 | – | – | < 1e-05
19 | A6C A33G U46C C61G | – | < 1e-05 | – | – | < 1e-05

Row | Variant | self-cleavage kobs at 40 uM GlcN6P (glucosamine-6-phosphate [1]) [s⁻¹] | self-cleavage kobs at 640 uM GlcN6P (glucosamine-6-phosphate [2]) [s⁻¹] | self-cleavage kobs at 160 uM GlcN6P (glucosamine-6-phosphate [3]) [s⁻¹] | self-cleavage kobs at 10000 uM GlcN6P (glucosamine-6-phosphate [4]) [s⁻¹] | self-cleavage kobs at 2500 uM GlcN6P (glucosamine-6-phosphate [5]) [s⁻¹]
20 | A6U U30C A53U U56C | – | < 1e-05 | < 1e-05 | – | < 1e-05
21 | A6U A14C G51A | – | < 1e-05 | < 1e-05 | – | –
22 | G7C A15U G29U G51U | – | < 1e-05 | < 1e-05 | – | < 1e-05
23 | G38U G41U | < 1e-05 | < 1e-05 | < 1e-05 | < 1e-05 | < 1e-05
24 | G40U G63U | < 1e-05 | – | – | – | –
25 | G41U U49A U55G | < 1e-05 | – | – | < 1e-05 | < 1e-05
26 | A6C C58G A64G | – | < 1e-05 | – | – | –
27 | A6G G40U G41U | – | < 1e-05 | – | – | < 1e-05
28 | A53U G60U | < 1e-05 | < 1e-05 | – | < 1e-05 | –
29 | A42C G63A C67G | < 1e-05 | – | – | – | –
30 | G63C U65A | < 1e-05 | – | – | < 1e-05 | –
31 | G40U C50U | < 1e-05 | < 1e-05 | < 1e-05 | < 1e-05 | –
32 | A6G A14U U55C C58G C68A | – | < 1e-05 | < 1e-05 | – | –
33 | A52U G60U | < 1e-05 | – | – | < 1e-05 | < 1e-05
34 | G7A U31G G37A G43C | – | < 1e-05 | – | – | –
35 | A53U G59A | < 1e-05 | – | – | – | –
36 | A6G A53G C61A | – | < 1e-05 | – | – | < 1e-05
37 | G40U A42C G44U G51U C67U | < 1e-05 | – | – | < 1e-05 | –
38 | U45G C58U | < 1e-05 | – | – | – | –

Row | Variant | self-cleavage kobs at 40 uM GlcN6P (glucosamine-6-phosphate [1]) [s⁻¹] | self-cleavage kobs at 640 uM GlcN6P (glucosamine-6-phosphate [2]) [s⁻¹] | self-cleavage kobs at 160 uM GlcN6P (glucosamine-6-phosphate [3]) [s⁻¹] | self-cleavage kobs at 10000 uM GlcN6P (glucosamine-6-phosphate [4]) [s⁻¹] | self-cleavage kobs at 2500 uM GlcN6P (glucosamine-6-phosphate [5]) [s⁻¹]
39 | A53U A64C | < 1e-05 | – | – | – | –
40 | A53G C61G C70U | < 1e-05 | – | – | – | –
41 | G38C U47A | < 1e-05 | – | < 1e-05 | – | < 1e-05
42 | G7C G51A G63C | – | < 1e-05 | – | – | –
43 | U47A U57G C58U C70U | < 1e-05 | – | – | – | –
44 | A52U C71A | < 1e-05 | 5.96e-05 ± 1.3e-05 | – | – | –
45 | G7C C8A C71U | – | < 1e-05 | – | – | –
46 | A6G G9U A64G | – | < 1e-05 | – | – | –
47 | A6U A15U U46G | – | < 1e-05 | – | – | < 1e-05
48 | U45A C61U | < 1e-05 | – | – | – | –
49 | U45G G63U | < 1e-05 | – | – | – | –
50 | U55G C71G | 7.4e-05 ± 1.7e-05 | – | – | 0.00121 ± 0.00035 | 0.000704 ± 0.00019
51 | G43C U57G | < 1e-05 | < 1e-05 | – | < 1e-05 | < 1e-05
52 | G41C G51A G66A | < 1e-05 | – | – | < 1e-05 | –
53 | G60U C68A | < 1e-05 | < 1e-05 | < 1e-05 | < 1e-05 | < 1e-05
54 | U57C G66C | < 1e-05 | < 1e-05 | – | – | –
55 | G38U U49G U56G | < 1e-05 | – | – | < 1e-05 | < 1e-05
56 | A52U G63A | < 1e-05 | < 1e-05 | < 1e-05 | < 1e-05 | < 1e-05
